{"source": "the supplement of paper PMC4604168 (melanoma cell lines)", "experiment_in_all_cases": "cell count relative to DMSO control; melanoma cells; higher = more viable cells", "conditions_in_all_cases": "library dose: low library concentration; 72 h", "key": {"[1]": {"test_system": "MZ2-MEL"}, "[2]": {"test_system": "MeWo"}, "[3]": {"test_system": "RPMI7951"}, "[4]": {"test_system": "RVH-421"}, "[5]": {"test_system": "SkMel28"}, "[6]": {"test_system": "SkMel30"}, "[7]": {"test_system": "UACC62"}, "[8]": {"test_system": "SkMel5"}, "[9]": {"test_system": "UACC257"}}, "note": "Some of the results follow. Single values are uncertain, as repeats are few or missing."}
{"compound": "O=c1[nH]nc(Sc2ncc([N+](=O)[O-])s2)n1-c1ccc2c(c1)OCCO2", "note": "+ NC(=O)c1ccc(N(C(N)=O)c2c(F)cccc2F)nc1-c1ccc(F)cc1F [VX702] (first compound 0.2 µM, partner dose 0.4 µM);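 also: cell number obtained by counting DAPI-stained nuclei in high-throughput microscope images with image analysis software, screen run in 1,536-well plates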", "values": [{"measurement": "cell count", "setting": "[1]", "value": 101, "unit": "%"}, {"measurement": "cell count", "setting": "[2]", "value": 94.8, "unit": "%"}, {"measurement": "cell count", "setting": "[3]", "value": 94.3, "unit": "%"}, {"measurement": "cell count", "setting": "[4]", "value": 81, "unit": "%"}, {"measurement": "cell count", "setting": "[5]", "value": 86.3, "unit": "%"}, {"measurement": "cell count", "setting": "[6]", "value": 81.9, "unit": "%"}, {"measurement": "cell count", "setting": "[7]", "value": 96.5, "unit": "%"}]}
{"compound": "O=C(Nc1cccc(Cl)c1)Nc1ncc(CCNc2ncnc3ccsc23)s1", "note": "+ N#Cc1c(O)c2c(-c3ccc(-c4ccccc4O)cc3)csc2[nH]c1=O [A769662] (first compound 0.0008 µM, partner dose 2 µM)", "values": [{"measurement": "cell count", "setting": "[1]", "value": 101, "unit": "%"}, {"measurement": "cell count", "setting": "[2]", "value": 89.3, "unit": "%"}, {"measurement": "cell count", "setting": "[3]", "value": 101, "unit": "%"}, {"measurement": "cell count", "setting": "[4]", "value": 75.4, "unit": "%"}, {"measurement": "cell count", "setting": "[5]", "value": 94.1, "unit": "%"}, {"measurement": "cell count", "setting": "[6]", "value": 93.4, "unit": "%"}, {"measurement": "cell count", "setting": "[8]", "value": 99.2, "unit": "%"}, {"measurement": "cell count", "setting": "[9]", "value": 96.7, "unit": "%"}, {"measurement": "cell count", "setting": "[7]", "value": 83.7, "unit": "%"}]}
{"compound": "C[C@@H]1CCN(C(=O)CC#N)C[C@@H]1N(C)c1ncnc2[nH]ccc12", "note": "+ O=c1cc(-c2cccc3c2Sc2ccccc2S3)oc(N2CCOCC2)c1 [KU55933] (first compound 1 µM, partner dose 1 µM)", "values": [{"measurement": "cell count", "setting": "[1]", "value": 97.3, "unit": "%"}, {"measurement": "cell count", "setting": "[2]", "value": 102, "unit": "%"}, {"measurement": "cell count", "setting": "[3]", "value": 106, "unit": "%"}, {"measurement": "cell count", "setting": "[4]", "value": 118, "unit": "%"}, {"measurement": "cell count", "setting": "[5]", "value": 98.8, "unit": "%"}, {"measurement": "cell count", "setting": "[6]", "value": 88.1, "unit": "%"}, {"measurement": "cell count", "setting": "[8]", "value": 104, "unit": "%"}, {"measurement": "cell count", "setting": "[9]", "value": 98.6, "unit": "%"}, {"measurement": "cell count", "setting": "[7]", "value": 95, "unit": "%"}]}
{"compound": "O=c1[nH]nc(Sc2ncc([N+](=O)[O-])s2)n1-c1ccc2c(c1)OCCO2", "note": "+ C=CCn1c(=O)c2cnc(Nc3ccc(N4CCN(C)CC4)cc3)nc2n1-c1cccc(C(C)(C)O)n1 [MK1775] (first compound 0.2 µM, partner dose 0.02 µM)", "values": [{"measurement": "cell count", "setting": "[2]", "value": 97.1, "unit": "%"}, {"measurement": "cell count", "setting": "[3]", "value": 89, "unit": "%"}, {"measurement": "cell count", "setting": "[4]", "value": 87.4, "unit": "%"}, {"measurement": "cell count", "setting": "[5]", "value": 93.4, "unit": "%"}, {"measurement": "cell count", "setting": "[6]", "value": 87.9, "unit": "%"}, {"measurement": "cell count", "setting": "[8]", "value": 83.6, "unit": "%"}, {"measurement": "cell count", "setting": "[9]", "value": 85.8, "unit": "%"}, {"measurement": "cell count", "setting": "[7]", "value": 81.2, "unit": "%"}]}
{"compound": "COc1cc(Nc2ncc(F)c(Nc3ccc4c(n3)NC(=O)C(C)(C)O4)n2)cc(OC)c1OC", "note": "[Tamatinib] + CCN(CC)CCCCNc1ncc2cc(-c3cc(OC)cc(OC)c3)c(NC(=O)NC(C)(C)C)nc2n1 [PD173074] (first compound 0.4 µM, partner dose 0.1 µM)", "values": [{"measurement": "cell count", "setting": "[1]", "value": 94.2, "unit": "%"}, {"measurement": "cell count", "setting": "[2]", "value": 95.3, "unit": "%"}, {"measurement": "cell count", "setting": "[3]", "value": 75.2, "unit": "%"}, {"measurement": "cell count", "setting": "[4]", "value": 63.9, "unit": "%"}, {"measurement": "cell count", "setting": "[5]", "value": 87.9, "unit": "%"}, {"measurement": "cell count", "setting": "[6]", "value": 87.6, "unit": "%"}, {"measurement": "cell count", "setting": "[8]", "value": 86.6, "unit": "%"}, {"measurement": "cell count", "setting": "[9]", "value": 67.5, "unit": "%"}, {"measurement": "cell count", "setting": "[7]", "value": 82.5, "unit": "%"}]}
